Data as given in patent US6048840A, “Hypoglycaemic peptides” (Monash University, priority 1987, dated 2000).
Entries after “also recorded” stand apart in the source; their conditions may differ. At least one peptide structure holds a part that was inferred or is arguable (an end, a ring closure or a residue). Some entries repeat one wording, which the source may state once for all of them. Residues, ends and D or L forms follow the SMILES beside them. No end group written: not given here. *: point of attachment. X1 = NC(=O)C[C@@H](C(N)=O)N1C(=O)C[C@H](N*)C1=O

Columns and labels:
rat hemidiaphragms [1] = experiment: In vitro glucose uptake in rat hemidiaphragms; type: cell-based; conditions: for Glucose Uptake Mean Difference (+peptide vs control): paired hemidiaphragms, peptide 0.14-0.22 μmol/ml; for Stimulation of glucose uptake in words: rat hemidiaphragms, Table 4; for Glucose Uptake +Peptide Mean ± SEM: β-imido peptides, peptide concentration 0.14 (1-15), 0.16 (6-13), 0.22 (7-13), 0.20 (8-13, 9-13, 10-13) μmol/ml
rats [2] = experiment: Change in blood glucose level in rats following intravenous injection of peptides; type: in vivo, rat; conditions: for Hypoglycaemic effect / activity in words: intravenous injection of peptide; for Difference from control means: i.v., control decrease 1.05; for Difference from control means / Decrease in blood glucose from basal levels: peptide 0.5 μmol/100 g; for Decrease in blood glucose from basal levels: intravenous injection, basal level 4.0-4.4 mmol glucose/l at time 0
From the text: (i) Effect on basal blood glucose levels
Values are changes (means ±SEM) of blood glucose from the basal level (4.0-4.4 mmol glucose/l) at time 0. Differences between the control and test groups were statistically evaluated according to Student's t-test. N.S. indicates 2P>0.05.

rat hemidiaphragms [3] = experiment: In vitro glycogen deposition in isolated rat hemidiaphragms; type: cell-based; conditions: for 14C-glycogen deposition Mean ± SEM / Difference from controls: peptide 0.1 μmol/ml
rats [4] = experiment: Intravenous insulin sensitivity / insulin tolerance test in rats; type: in vivo, rat; conditions: anaesthetised rats trained to eat on schedule, insulin plus peptide vs insulin only
rats [5] = experiment: Glucose tolerance test in normal rats; type: in vivo, rat; conditions: 200 μg/Kg body weight

CC(C)C[C@H](NC(=O)[C@H](CCCNC(=N)N)NC(=O)[C@@H](N)CO)C(=O)N[C@@H](Cc1ccccc1)C(=O)N[C@H]1CC(=O)N([C@@H](CC(N)=O)C(=O)N[C@@H](C)C(N)=O)C1=O [Pep 7-13]
Glucose Uptake Mean Difference (+peptide vs control) (rat hemidiaphragms [1]): 4.64 ± 1.63 μmol/g muscle/h | Stimulation of glucose uptake in words (rat hemidiaphragms [1]): on the borderline of significance | Glucose Uptake +Peptide Mean ± SEM (rat hemidiaphragms [1]): 46.79 ± 1.10 μmol/g muscle/h

CC(C)C[C@H](NC(=O)[C@@H](N)CCCNC(=N)N)C(=O)N[C@@H](Cc1ccccc1)C(=O)N[C@H]1CC(=O)N([C@@H](CC(N)=O)C(=O)N[C@@H](C)C(N)=O)C1=O [Pep 8-13]
Glucose Uptake Mean Difference (+peptide vs control) (rat hemidiaphragms [1]): 5.41 ± 0.65 μmol/g muscle/h | Stimulation of glucose uptake in words (rat hemidiaphragms [1]): highly significant stimulation | Glucose Uptake +Peptide Mean ± SEM (rat hemidiaphragms [1]): 44.11 ± 0.69 μmol/g muscle/h

C[C@H](NC(=O)[C@H](CC(N)=O)N1C(=O)C[C@H](NC(=O)[C@@H](N)Cc2ccccc2)C1=O)C(N)=O [Pep 10-13]
Glucose Uptake Mean Difference (+peptide vs control) (rat hemidiaphragms [1]): 0.80 ± 1.16 μmol/g muscle/h | Stimulation of glucose uptake in words (rat hemidiaphragms [1]): no effect | Glucose Uptake +Peptide Mean ± SEM (rat hemidiaphragms [1]): 33.07 ± 1.01 μmol/g muscle/h

CC(C)C[C@H](NC(=O)[C@H](CCCNC(=N)N)NC(=O)[C@H](CO)NC(=O)[C@@H](N)CC(C)C)C(=O)N[C@@H](Cc1ccccc1)C(=O)N[C@H]1CC(=O)N([C@@H](CC(N)=O)C(N)=O)C1=O [Pep (6-12) β imide] (H-LSRLF-X1)
Hypoglycaemic effect / activity in words (rats [2]): active

CC(C)C[C@H](NC(=O)[C@H](CCCNC(=N)N)NC(=O)[C@H](CO)NC(=O)[C@@H](N)CC(C)C)C(=O)NCC(=O)N[C@H]1CC(=O)N([C@@H](CC(N)=O)C(=O)N[C@@H](C)C(N)=O)C1=O [Pep (6-13) Gly^10 β imide form]
Hypoglycaemic effect / activity in words (rats [2]): always active

CC(C)C[C@H](NC(=O)[C@H](CCCNC(=N)N)NC(=O)[C@H](CO)NC(=O)[C@@H](N)CC(C)C)C(=O)N[C@@H](Cc1ccc(O)cc1)C(=O)N[C@H]1CC(=O)N([C@@H](CC(N)=O)C(=O)N[C@@H](C)C(N)=O)C1=O [Pep (6-13) Tyr^10 β imide form]
Hypoglycaemic effect / activity in words (rats [2]): always active

CC(C)C[C@H](NC(=O)[C@H](CCCNC(=N)N)NC(=O)[C@H](CO)NC(=O)[C@@H](N)CC(C)C)C(=O)N[C@@H](Cc1ccccc1)C(=O)N[C@H]1CC(=O)N([C@@H](CC(N)=O)C(=O)N[C@@H](C)C(N)=O)C1=O [Pep (6-13) imide, leu-ser-arg-leu-phe-β-imidoasp-asn-ala]
Difference from control means (rats [2]): 0.85 | Hypoglycaemic effect / activity in words (rats [2]; listed as Pep (6-13) β imide): significant hypoglycaemic effect; also recorded: active | Decrease in blood glucose from basal levels (rats [2]): 1.90 mmol glucose/l | 14C-glycogen deposition Mean ± SEM (rat hemidiaphragms [3]; Basal, insulin 0 μU/ml): 2.45 ± 0.19 µmol/g | Difference from controls (rat hemidiaphragms [3]; Basal, insulin 0 μU/ml): 0.29 | 14C-glycogen deposition Mean ± SEM (rat hemidiaphragms [3]; High insulin 10^4 μU/ml): 6.01 ± 0.54 µmol/g | Difference from controls (rat hemidiaphragms [3]; High insulin 10^4 μU/ml): -0.48 | 14C-glycogen deposition Mean ± SEM (rat hemidiaphragms [3]; Low insulin 10^2 μU/ml): 3.47 ± 0.21 µmol/g | Difference from controls (rat hemidiaphragms [3]; Low insulin 10^2 μU/ml): 0.72 | Effect on glycogen deposition in words (rat hemidiaphragms [3]; basal level, absence of added insulin): not effect on the basal level | Effect on glycogen deposition in words (rat hemidiaphragms [3]; low or high insulin concentrations (10^2 and 10^4 μU/ml)): significantly increased glycogen deposition | Glucose Uptake Mean Difference (+peptide vs control) (rat hemidiaphragms [1]): 3.15 ± 0.75 μmol/g muscle/h | Stimulation of glucose uptake in words (rat hemidiaphragms [1]): highly significant stimulation | Glucose Uptake +Peptide Mean ± SEM (rat hemidiaphragms [1]): 38.49 ± 1.53 μmol/g muscle/h | Potentiation of insulin action in words (rats [4]): effect depended on the dose of peptide | Effect on return of blood glucose to basal level in words (rats [5]): accelerates the return of blood glucose levels in rats to basal level

CC(C)C[C@H](N)C(=O)N[C@@H](Cc1ccccc1)C(=O)N[C@H]1CC(=O)N([C@@H](CC(N)=O)C(=O)N[C@@H](C)C(N)=O)C1=O [Pep (9-13) imide]
Difference from control means (rats [2]): 0.25 | Hypoglycaemic effect / activity in words (rats [2]): neither the α form nor the β imide form was active | Decrease in blood glucose from basal levels (rats [2]): 1.30 mmol glucose/l | Glucose Uptake Mean Difference (+peptide vs control) (rat hemidiaphragms [1]): 0.68 ± 0.80 μmol/g muscle/h | Stimulation of glucose uptake in words (rat hemidiaphragms [1]): no effect | Glucose Uptake +Peptide Mean ± SEM (rat hemidiaphragms [1]): 32.16 ± 0.97 μmol/g muscle/h

LFDNA-NH2 [Pep (9-13)]
Difference from control means (rats [2]): 0.07 | Hypoglycaemic effect / activity in words (rats [2]): neither the α form nor the β imide form was active | Decrease in blood glucose from basal levels (rats [2]): 1.12 mmol glucose/l

LSRLFANA-NH2 [Pep (6-13) Ala^11 α form]
Hypoglycaemic effect / activity in words (rats [2]): inactive

LSRLFD-NH2 [Pep (6-11)]
Difference from control means (rats [2]): 0.23 | Hypoglycaemic effect / activity in words (rats [2]): active only in the β imide form | Decrease in blood glucose from basal levels (rats [2]): 1.28 mmol glucose/l

LSRLFDN-NH2 [Pep (6-12)]
Difference from control means (rats [2]): -0.05 | Hypoglycaemic effect / activity in words (rats [2]): active only in the β imide form | Decrease in blood glucose from basal levels (rats [2]): 1.00 mmol glucose/l

LSRLFDNA-NH2 [Pep (6-13), leu-ser-arg-leu-phe-asp-asn-ala, reference compound]
Difference from control means (rats [2]): 0.00 | Hypoglycaemic effect / activity in words (rats [2]): active only in the β imide form | Decrease in blood glucose from basal levels (rats [2]): 1.05 mmol glucose/l | 14C-glycogen deposition Mean ± SEM (rat hemidiaphragms [3]; Basal, insulin 0 μU/ml): 2.30 ± 0.17 µmol/g | Difference from controls (rat hemidiaphragms [3]; Basal, insulin 0 μU/ml): -0.27 | 14C-glycogen deposition Mean ± SEM (rat hemidiaphragms [3]; High insulin 10^4 μU/ml): 4.36 ± 0.46 µmol/g | Difference from controls (rat hemidiaphragms [3]; High insulin 10^4 μU/ml): 0.36 | 14C-glycogen deposition Mean ± SEM (rat hemidiaphragms [3]; Low insulin 10^2 μU/ml): 2.35 ± 0.15 µmol/g | Difference from controls (rat hemidiaphragms [3]; Low insulin 10^2 μU/ml): -0.32 | Activity on glycogen deposition in words (rat hemidiaphragms [3]; isolated rat hemidiaphragms, all insulin levels): inactive

LSRLFPNA-NH2 [Pep (6-13) Pro^11 α form]
Hypoglycaemic effect / activity in words (rats [2]): inactive

LSRLGDNA-NH2 [Pep (6-13) Gly^10 α form]
Hypoglycaemic effect / activity in words (rats [2]): inactive

LSRLGPNA-NH2 [Pep (6-13) Gly^10 Pro^11 α form]
Hypoglycaemic effect / activity in words (rats [2]): inactive

LSRLYDNA-NH2 [Pep (6-13) Tyr^10 α form]
Hypoglycaemic effect / activity in words (rats [2]): inactive
